Reference: the supplement of paper PMC12632987
The full ranking holds about 2,300 sequences; the median of “median log2 fold change of GCK-ALFA target abundance (FLAG IP / Myc IP barcode read proportion)” is about 0.095, and the lowest 2% start at about -0.47. This is one part of the list.

B1: LC3A_6_2060 (protein)
chain: KTVTVTVDLLLKEEKLEEGKAAVEKAVEEAKKELEKKAKELGKKLLEVKLEESEDGLLLTVTFKAEYHPELKAKMEELADKIVEEMKPYSLASMISIEIE
B2: LC3A_17_573 (protein)
chain: MEEVEELYKKALEVLKKAAEFAAKVDPEKAKEIEKLIKELEKAKKELSPLEIAKKIAEVMDKAADILDSLDAPDPDERDHLSMEAEGVSIEALSLALKLE
B3: LC3A_74_2074 (protein)
chain: KITPEESEIVFEAVATAHLLRLLAERHPERAEELRALADELLEAANKVIEKAGLDKDLIESGGEIEAELRLDTEPLSVEEALALGREKLKEVNAILKKLE
B4: LC3A_59_2016 (protein)
chain: SAELEKAIAEIKANVDDLEALAKTLAEALWKFKDNEEDVDKLIEAAGEALSKKYGISEEDIEELKKEIREAFKKLKDLEELEKEILELLNDYVNLIPIEE
B5: LC3A_28_1036 (protein)
chain: MELEKKAEEAVKEAEELAKKGEEATVTIDVGKLPTEEAAAIVKRALERLIEISKKYGNQKINVVINVDGDQETIDAIIDIAEEAEKKNPNLTVIVAIDEE
B6: LC3A_17_545 (protein)
chain: MEEIKKELEKLLKELKKLVKKLKPYDPEAAKKLEKELKEAEKLLKEGKLKEAAEKLIKAADELADAFEKLEPEKGTEASVLAMEANGIEIEAIGLLLKLE
B7: LC3A_free_39_2216 (protein)
chain: SREEIEETIREIAREGGIDEEYVRAKMEEIQRVGGLSDEQMLEITKAVLEAVRAGADAREILEDILALTKELVAAGKSPEEIAEEILELIEDYRNLVPLD
B8: LC3A_3_1585 (protein)
chain: LEEKEKELIEALKKAGHSEETIKAVKELLELLKEKGYEEAAEKFIELFLENIDLSSELLLDVALEMKELVEAGKLSEEEIIEEAEELFRVAKSEQEIIEL
B9: LC3A_free_8_2500 (protein)
chain: NNQKVVDAALKGLEELEKELREKAKKLGLSELDILELELEVGSAISDVISNSDKSPEEILKTTREDLERIIELAKELSEELAELAKKKSEEILKELEKLL
B10: LC3A_free_8_2534 (protein)
chain: NKQEFVDKALELLDEFEEKLVKKMKEEGKSRLEILEMELLIGETEIEVIENSDKPQEEILKVVEEGLKEIVELAKEYGEEIAKFAEEKAEEVLKELREFL
B11: LC3A_102_156 (protein)
chain: DIEKLLKETKKKIEELAKKLAKTLSKEEAEKLKKLVKEALELLEKYAEELKIGAQHDYETVEGVAAEIELEDLIKKLKEMGAEEIAEALEKGVKELKKLA
B12: LC3A_132_289 (protein)
chain: QEEKAKELLEEARKLVEEAKENIDDEEKVRELLKQIEEVMERAKKELSPELLAEFFEELEDLLEELSEEFDEAGKEELALEADSLAIEAASLSLEAKEKI
B13: LC3A_free_46_2423 (protein)
chain: MVLEIEIDFIAKTKETAEAVSKEIEELIKKLAEEKGVEVEIEVEIEKLEDGTYYVHIKATITGVTEEQAKEIEDTLTSKIEEILKKYPEVLGSIISSELK
B14: LC3A_132_275 (protein)
chain: GKEKAEEIKKKLKELMKKLEENIDNLEKVKELVKEIEKLLEEAEKELTPEEVAEVAEYLAELAEKVEEKYEKAGKEEEALLVLNLSMYADGIAIEAELKL
B15: LC3A_free_46_2374 (protein)
chain: MKITIYAYKEGMTEKEAEELAEEIEKEIKEIAKKLGVEVEIKTEVVKNADGSYLVVVEIIIKAETEEKEQEAEVAIIEKVDEIAKKRNASVIISVEKIEP
B16: LC3A_147_419 (protein)
chain: GTLEFEIDILGKLTDEEIEELVKRLEEVAKKHGAEVEVEVEVEELPGGERFVRIKLTLKGVKEEDAQTVENALIDEVDKFIEKYKDKIKGYIISSEFIKD
B17: LC3A_free_0_2120 (protein)
chain: KKTVVEVVIILDDSTSEEKAKEIHEKLKEEAEKLAKENGGELKSSLSKSDGSYIITLEITFDTEDIDLALEVERKLVEIAEKILKEANVEATIYSSVYLE
B18: LC3A_28_1234 (protein)
chain: MTPEEIAKRLIEKAKEQLAAGEKVIEIEITEEEASPENTEAIVKAIHEIAKMANEAKGVSIVINVSGKADPEVINAIMDAAEEAEKKYPNVTIIIAIADE
B19: LC3A_3_1658 (protein)
chain: AEELVKETLEYLKKQGKSEEVLEAVKKALTALIEKGYLETAKTFAELLKELADLSDETLLDLANEVLELVETENISEEEMKKRVKELARVARLEEEIEEL

molecular target: MAP1LC3A, Q9H492; assay: median log2 fold change of GCK-ALFA target abundance (FLAG IP / Myc IP barcode read proportion) (log2 ratio); each designed protein is fused to an ALFA-tag nanobody in HEK293 cells to bring the named protein to FLAG-tagged glucokinase (GCK); Myc marks an untargeted standard; higher = target protein stabilised (more abundant); settings: target protein: 3xFLAG-MCP-GCK-ALFA reporter; HEK293 landing pad (RPLP)
Method in brief: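 An ALFA-nanobody-fused binder library was recombined into HEK293 landing-pad cells and induced with 2 μg mL^−1 doxycycline. Cells were transfected with a plasmid expressing a FLAG-tagged target and a Myc-tagged standard. After 48 h, lysates underwent anti-FLAG and anti-Myc immunoprecipitation, and circular RNA barcodes were reverse transcribed, amplified and sequenced. Target abundance is the per-binder median log2 ratio of FLAG to Myc barcode read proportions. Barcodes needed ≥10^−7 proportion in both replicates, binders ≥3 barcodes per replicate, and a 10^−6 pseudocount was added; the two replicates were pooled.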

Binder | median log2 fold change
B1 | -0.119
B2 | -0.04
B3 | 0.266
B4 | 0.28
B5 | 0.326
B6 | 0.151
B7 | 0.0117
B8 | 0.138
B9 | -0.157
B10 | -0.00611
B11 | 0.18
B12 | -0.307
B13 | -0.0218
B14 | -0.404
B15 | -0.0534
B16 | -0.158
B17 | -0.12
B18 | -0.0382
B19 | 0.194
